Measured values: PubChem BioAssay AID662 (National Center for Advancing Translational Sciences (NCATS), 2007)
Among all 71,000 compounds or so, about 1,800 (2.5%) were called active. The shares of active, inactive and inconclusive entries below differ from those in the screen. Calls follow the shape of the dose curve; as a rule, active = well fitted activation curve with a large enough effect in the signal ratio, with a control signal flat (not every such curve was filed as active); inconclusive = small, poorly fitted or top-dose-only effect, or effect the other way, or a change in a side signal; inactive = flat fitted curve, though single readings scatter; the % refers to the signal ratio. A potency beside an inconclusive call is a rough fit, not a confirmed value.

Test: Cell signaling CRE-BLA (Fsk stim); as to activity change, negative = inhibition: % of control where 0% means no effect
Details: CHO CRE-bla reporter (cAMP response element driving beta-lactamase), forskolin EC10, beta-lactamase ratio; activity change, negative = inhibition: at 38.2 µM (top of the series) unless noted
Procedure, shortened: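 Forskolin analogue NKH 477 at EC10 stimulated CRE-driven beta-lactamase in CHO cells alongside compound dilution series. Beta-lactamase was measured with CCF4, excitation 405 nm, emission ratio 460/530 nm.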
Potency is read from the fitted curve at half-maximal effect; tags tell the direction and shape of the fitted curve.

SMILES | Potency | activity change, negative = inhibition
CCOC(=O)c1c(-c2ccccc2)csc1NC(=O)c1nn(CC)cc1Br | active: 2.51 µM | –
CC(=O)N(Cc1cc2c(C)cc(C)cc2[nH]c1=O)C1CCCCC1 | – | inconclusive: 27.1%
NS(=O)(=O)c1ccc(CCNC(=O)c2ccccc2F)cc1 | inconclusive: 3.16 µM [falling, single point] | –
CCC(C)N(C(=O)COC(=O)c1[nH]c(C)c(C(C)=O)c1C)C1CCS(=O)(=O)C1 (stereo not drawn) | – | inconclusive: 7.83%
Cn1c(CSc2nnc(SCc3ccccc3)s2)nc2ccccc21 | inconclusive: 12.6 µM [rising, single point] | –
COc1ncc2nc(-c3ccc(F)cc3)c(=O)n(-c3ccccc3)c2n1 | inconclusive: 15.8 µM [rising, partial curve] | –
COCCn1c(=O)c(CCc2ccccc2)nc2cnc(Oc3cccc(Cl)c3)nc21 | – | inactive: 6.64%
COc1ccc(S(=O)(=O)N2CCN(c3ccccc3OC)CC2)cc1OC | inconclusive: 20 µM [rising, single point] | –
CCc1ccc(CNc2ccc(O)cc2)cc1 | – | inactive: -6.05%
CN(Cc1ccc(OC(F)F)cc1)C(=O)c1ccc2nccnc2c1 | inconclusive: 5.01 µM [falling, single point] | –
Cc1cc2cc(CN3C(=O)c4ccccc4C3=O)ccc2[nH]1 | inconclusive: 12.6 µM [rising, partial curve] | –
CC1CCN(S(=O)(=O)c2cccc(C(N)=O)c2)CC1 | – | inactive: 4.46%
COC(=O)c1cc(N2C(=O)C3C(C2=O)C2(C)C=CC3(C)O2)ccc1Cl (stereo not drawn) | – | inconclusive: 16.9% [cytotoxic]
Cc1cc(-c2cccnc2)c(C#N)c(SCC#N)n1 | active: 12.6 µM | –
CCN(CC)c1ccc(C2C(C(=O)OCCOC)=C(C)NC3=C2C(=O)CC(C)(C)C3)cc1 (stereo not drawn) | – | inconclusive: 15.8%
CC(C)(CNS(=O)(=O)c1ccc(F)cc1)CNS(=O)(=O)c1ccc(F)cc1 | – | inconclusive: -15.1%
O=c1[nH]c2cc3c(cc2cc1C(c1nnnn1CC1CCCO1)N1CCCCCC1)OCO3 (stereo not drawn) | – | inactive: 2.11%
Cc1ccc2cc(CN(CCO)Cc3nnnn3Cc3ccc(F)cc3)c(=O)[nH]c2c1 | – | inactive: -9.45%
CC(=O)Nc1cccc(C(=O)Nc2ccccc2C(=O)O)c1 | – | inactive: -2.35%
CCCCOC(=O)c1ccc(NS(=O)(=O)c2cc(-c3nnnn3CC)ccc2OC)cc1 | – | inconclusive: -16.2%
COCC(=O)Nc1ccc(S(=O)(=O)NCCc2ccccc2)cc1 | – | inactive: -10.4%
COc1cccc(-c2ccc3ncnc(Nc4ccccc4)c3c2)c1 | inconclusive: 15.8 µM [rising, partial curve] | –
CCOC(=O)N1CCN(c2ccc(C(=O)c3cccc(F)c3)cc2)CC1 | – | inactive: -7.89%
